Data from the RNAGym collection of RNA variant scans (doi:10.7554/elife.90254).
Read counts are not given, so values of variants with three or more changes are uncertain.

B1: LINE1-mini (parent)
chain: GGCAGAGCUCAACACAGCGUGGCAAAGUGGCUGUGGCUAGACUGCC

Variants of: B1
Assay: self-cleavage, relative activity (ratio to wild type); higher = more cleavage; in vitro, sequencing; the parent is a self-cleaving ribozyme

Variant | self-cleavage
G27A U28G G36C | 0
G27A U32A C42G | 0.08
G27A U38C C42G G44A | 0.16
G27C A41U C45G | 0.09
G27C C37G A41U C46A | 0
G27C C37G G40A C46U | 0.05
G27C C37U A39U G40C | 0.37
G27C C37U C42U | 0.05
G27C G29C A41U | 0.28
G27C G29C U43A | 0.06
G27C G30C C42G | 0.01
G27C G33U A41C | 0.35
G27C G35A C45A | 0.09
G27C G35C C37G G40C | 0.09
G27C G35U C37G | 0.01
G27C G35U C42A | 0.01
G27C G36A C37U | 0.02
G27C G36C U43C | 0.2
G27C G36U C42G U43G | 0.02
G27C G36U G40C A41U | 0.13
G27C U28A C31G G40U | 0.07
G27C U28A G33C U34A | 0
G27C U28A G33C U38C | 0.04
G27C U28A U43A | 0.01

Variant | self-cleavage
G27C U28G U32A C37U | 0.03
G27C U34A G36U C45U | 0.05
G27C U34G G36C | 0.06
G27C U38A C46U | 0.52
G27U A39C C45G | 0.05
G27U A41U U43A | 0.11
G27U C31A G33A | 0.13
G27U C31A G35A A39G | 0.06
G27U C31G A41C U43C | 0.06
G27U C31G G36C | 0.06
G27U C31U G35C | 0.06
G27U C37U C42U | 0.07
G27U C37U C46A | 0.03
G27U C42A U43G | 0.04
G27U C42U C45A | 0.14
G27U G29A U34C | 0.01
G27U G29C C45A | 0.48
G27U G29U G36C | 0.05
G27U G29U U38A | 0.49
G27U G30A G44U | 0.4
G27U G30C U38C G40A | 0.02
G27U G30U G35U U38G A41C | 0.02
G27U G33C C45U | 0.03
G27U G33U U34C | 0.02

Variant | self-cleavage
G27U G35A C37A G40A U43A | 0.06
G27U G35C C37A U38G | 0
G27U G44A C46G | 0
G27U U28C C31G | 0.02
G27U U28C G35C | 0.15
G27U U28G C46U | 0.12
G27U U32A C45U | 0.23
G27U U32A U34G | 0.02
G27U U32C U34C | 0.06
G27U U32G C46A | 0.04
G27U U38C C42U C46G | 0.02
U28A A41U C46A | 0.29
U28A C31A G44C | 0.08
U28A C37G U38C | 0
U28A C37U G44A C45U | 0.03
U28A C42A C46U | 0.21
U28A G29A C37G G40U | 0.02
U28A G29U G44C | 0.08
U28A G30A G36A | 0.24
U28A G30A G44A | 0.09
U28A G30C G40A | 0.02
U28A G30U U34G | 0.18
U28A G35A A39U | 0.21
U28A G35C C46A | 0.06

Variant | self-cleavage
U28A U32C G40U | 0.15
U28A U32G C37A A41U | 0.03
U28A U32G C42A G44U | 0.08
U28A U34A C42A | 0.07
U28A U43C G44C C45G | 0.03
U28C C31G A39U A41G | 0.07
U28C G29C U38C | 0.1
U28C G29U C37A U38C C45A C46U | 0.03
U28C G30A U38A C45U C46U | 0.39
U28C G33C C45A | 0.02
U28C G35A A41U | 0.2
U28C G36A A39G G40U | 0.05
U28C U34A G35C | 0.08
U28C U38A C42U | 0.04
U28C U43G C46A | 0.2
U28G C45A C46U | 0.17
U28G G29C G35C G40A | 0.12
U28G G30A A39G | 0.02
U28G G30U C31U | 0.51
U28G G30U C37U | 0
U28G G33A C46A | 0.01
U28G G33A G36A | 0
U28G G33U A39U C46A | 0.01
U28G G36C A39C G40U C45U | 0.02

Variant | self-cleavage
U28G G36U C37A U43A | 0.12
U28G G36U C37U | 0.02
U28G G36U U43C G44A | 0.14
U28G U32A C37G U38A G44U | 0.01
U28G U32A G33U | 0.03
U28G U32A G44C C46U | 0.04
U28G U32C C42U | 0.04
U28G U34A C37U U38C C46U | 0.02
U28G U34C C37U G44U | 0.03
U28G U38G C46A | 0.02
G29A A39U C45U | 1.13
G29A A39U G40A | 0.08
G29A A41C C45U | 0.22
G29A A41U G44A | 0.23
G29A C31A C45A | 0.11
G29A C31A C46A | 0.27
G29A C31A G44C | 0.1
G29A C31U C45U | 1.01
G29A C37G C42U C45A | 0.16
G29A C37G U38G | 0.01
G29A C37U A41G | 0.07
G29A G30A G35C C42G | 0.05
G29A G30U C42A C45U | 0.09
G29A G33A C46U | 0.04

Variant | self-cleavage
G29A G33A U34G G36C | 0.05
G29A G33U C46A | 0.05
G29A G40A G44U C46A | 0.06
G29A G40C C46U | 0.01
G29A G44U C45U | 0.09
G29A U34C G36C C37U C45A | 0.02
G29A U34G C46U | 0.28
G29A U34G G44C | 0.04
G29A U38G A41C | 0.01
G29C C37A C46G | 0.04
G29C C42U C45A | 0.01
G29C G30A C37A G40A | 0.13
G29C G30C G33C | 0.01
G29C G30C U38G | 0.01
G29C G35U A41G | 0.01
G29C G36U C45G C46G | 0.07
G29C G40C C45A | 0.02
G29C U34A C37U | 0.01
G29C U43G G44U | 0.04
G29U A39G C42G G44A C45G | 0.05
G29U A41G C46A | 0.09
G29U C31A G35A U38C | 0.03
G29U C31A G44U | 0.03
G29U C31A U32G G33A | 0.06

Variant | self-cleavage
G29U C31G U34A A39C | 0.03
G29U C37G G40U | 0.1
G29U C37U G44A | 0.02
G29U G30A A39G | 0.14
G29U G33A G35U G36U C42U | 0.03
G29U G33C C37G | 0.01
G29U G33C G36U | 0.08
G29U G33U C46A | 0.1
G29U G33U U43G | 0
G29U G35C G36A | 0.19
G29U G35C U38C C46U | 0.09
G29U G35U U43A C45U | 0.19
G29U G36A C42U | 0.19
G29U G36U U38C | 0.02
G29U G40U G44C | 0.1
G29U U34G G35U | 0.05
G29U U38C U43A | 0.11
G29U U38G G44U | 0.03
G30A A39G U43G | 0.05
G30A C31A U32C | 0.12
G30A C31A U34A | 0.05
G30A C31G C46A | 0.01
G30A C31G U34C G35C | 0.03
